# Test results as given in the supplement of paper PMC8728848.
# The list shows a part of the results.
# B1: Siglec-9 (Homo sapiens), Q9Y336 (protein)
# chain: MLLLLLPLLWGRERAEGQTSKLLTMQSSVTVQEGLCVHVPCSFSYPSHGWIYPGPVVHGYWFREGANTDQDAPVATNNPARAVWEETRDRFHLLGDPHTKNCTLSIRDARRSDAGRYFFKMEKGSIKWNYKHHRLSVNVTALTHRPNILIPGTLESGCPQNLTCSVPWACEQGTPPMISWIGTSVSPLDPSTTRSSVLTLIPQPQDHGTSLTCQVTFPGASVTTNKTVHLNVSYPPQNLTMTVFQGDGTVSTVLGNGSSLSLPEGQSLRLVCAVDAVDSNPPARLSLSWRGLTLCPSQPSNPGVLELPWVHLRDAAEFTCRAQNPLGSQQVYLNVSLQSKATSGVTQGVVGGAGATALVFLSFCVIFVVVRSCRKKSARPAAGVGDTGIEDANAVRGSASQGPLTEPWAEDSPPDQPPPASARSSVGEGELQYASLSFQMVKPWDSRGQEATDTEYSEIKIHR
# What was measured:
# Assay in all cases: glycan array binding signal (z-score within array); higher = stronger binding
# Conditions in all cases: glycan notation: IUPAC condensed, linker removed; mutation: R120K
# [1] = target: Fuc(a1-2)Gal6S(b1-3)GlcNAc
# How it was run: (§1)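 The binding signal is a Z-score computed within each array. Data were drawn from 3228 arrays in the Consortium for Functional Glycomics database, restricted to those with a known protein sequence. Scores were averaged over arrays of the same protein sequence at different concentrations or buffers, and over linkers, and negative values can be taken as non-binding.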
# [2] = target: Fuc(a1-2)Gal6S(b1-3)GlcNAc6S
# How it was run: as §1
# Fuc(a1-2)Gal6S(b1-4)Glc = target: Fuc(a1-2)Gal6S(b1-4)Glc
# How it was run: as §1
# [3] = target: Fuc(a1-2)Gal6S(b1-4)Glc6S
# How it was run: as §1
# Fuc(a1-2)[Gal(a1-3)]Gal = target: Fuc(a1-2)[Gal(a1-3)]Gal
# How it was run: as §1
# [4] = target: Fuc(a1-2)[Gal(a1-3)]Gal(b1-3)GalNAc
# How it was run: as §1
# [5] = target: Fuc(a1-2)[Gal(a1-3)]Gal(b1-3)GalNAc(b1-3)Gal(a1-4)Gal(b1-4)Glc
# How it was run: as §1
# [6] = target: Fuc(a1-2)[Gal(a1-3)]Gal(b1-3)GlcNAc
# How it was run: as §1
# [7] = target: Fuc(a1-2)[Gal(a1-3)]Gal(b1-3)GlcNAc(b1-2)Man(a1-3)[Fuc(a1-2)[Gal(a1-3)]Gal(b1-3)GlcNAc(b1-2)Man(a1-6)]Man(b1-4)GlcNAc(b1-4)GlcNAc
# How it was run: as §1
# [8] = target: Fuc(a1-2)[Gal(a1-3)]Gal(b1-3)GlcNAc(b1-2)Man(a1-3)[Fuc(a1-2)[Gal(a1-3)]Gal(b1-3)GlcNAc(b1-2)Man(a1-6)]Man(b1-4)GlcNAc(b1-4)[Fuc(a1-6)]GlcNAc
# How it was run: as §1
# [9] = target: Fuc(a1-2)[Gal(a1-3)]Gal(b1-3)GlcNAc(b1-3)GalNAc
# How it was run: as §1
# [10] = target: Fuc(a1-2)[Gal(a1-3)]Gal(b1-3)GlcNAc(b1-6)GalNAc
# How it was run: as §1
# [11] = target: Fuc(a1-2)[Gal(a1-3)]Gal(b1-4)Glc
# How it was run: as §1
# [12] = target: Fuc(a1-2)[Gal(a1-3)]Gal(b1-4)GlcNAc
# How it was run: as §1
# [13] = target: Fuc(a1-2)[Gal(a1-3)]Gal(b1-4)GlcNAc(b1-2)Man
# How it was run: as §1
# [14] = target: Fuc(a1-2)[Gal(a1-3)]Gal(b1-4)GlcNAc(b1-2)Man(a1-3)[Fuc(a1-2)[Gal(a1-3)]Gal(b1-4)GlcNAc(b1-2)Man(a1-6)]Man(b1-4)GlcNAc(b1-4)GlcNAc
# How it was run: as §1
# [15] = target: Fuc(a1-2)[Gal(a1-3)]Gal(b1-4)GlcNAc(b1-2)Man(a1-3)[Fuc(a1-2)[Gal(a1-3)]Gal(b1-4)GlcNAc(b1-2)Man(a1-6)]Man(b1-4)GlcNAc(b1-4)[Fuc(a1-6)]GlcNAc
# How it was run: as §1
# [16] = target: Fuc(a1-2)[Gal(a1-3)]Gal(b1-4)GlcNAc(b1-3)GalNAc
# How it was run: as §1
# [17] = target: Fuc(a1-2)[Gal(a1-3)]Gal(b1-4)GlcNAc(b1-3)[Fuc(a1-2)[Gal(a1-3)]Gal(b1-4)GlcNAc(b1-6)]GalNAc
# How it was run: as §1
# [18] = target: Fuc(a1-2)[Gal(a1-3)]Gal(b1-4)GlcNAc(b1-6)GalNAc
# How it was run: as §1
# [19] = target: Fuc(a1-2)[Gal(a1-3)]Gal(b1-4)[Fuc(a1-3)]Glc
# How it was run: as §1
# [20] = target: Fuc(a1-2)[Gal(a1-3)]Gal(b1-4)[Fuc(a1-3)]GlcNAc
# How it was run: as §1
# [21] = target: Fuc(a1-2)[Gal(a1-3)]Gal(b1-4)[Fuc(a1-3)]GlcNAc(b1-3)GalNAc
# How it was run: as §1
# [22] = target: Fuc(a1-2)[Gal(a1-4)]Gal(b1-4)GlcNAc
# How it was run: as §1
# [23] = target: Fuc(a1-2)[GalNAc(a1-3)]Gal
# How it was run: as §1
# [24] = target: Fuc(a1-2)[GalNAc(a1-3)]Gal(b1-3)GalNAc(a1-3)[Fuc(a1-2)]Gal(b1-4)GlcNAc
# How it was run: as §1
# [25] = target: Fuc(a1-2)[GalNAc(a1-3)]Gal(b1-3)GalNAc(b1-3)Gal(a1-4)Gal(b1-4)Glc
# How it was run: as §1
# [26] = target: Fuc(a1-2)[GalNAc(a1-3)]Gal(b1-3)GlcNAc
# How it was run: as §1
# [27] = target: Fuc(a1-2)[GalNAc(a1-3)]Gal(b1-3)GlcNAc(b1-2)Man(a1-3)[Fuc(a1-2)[GalNAc(a1-3)]Gal(b1-3)GlcNAc(b1-2)Man(a1-6)]Man(b1-4)GlcNAc(b1-4)GlcNAc
# How it was run: as §1
# [28] = target: Fuc(a1-2)[GalNAc(a1-3)]Gal(b1-3)GlcNAc(b1-2)Man(a1-3)[Fuc(a1-2)[GalNAc(a1-3)]Gal(b1-3)GlcNAc(b1-2)Man(a1-6)]Man(b1-4)GlcNAc(b1-4)[Fuc(a1-6)]GlcNAc
# How it was run: as §1
# [29] = target: Fuc(a1-2)[GalNAc(a1-3)]Gal(b1-3)GlcNAc(b1-3)GalNAc
# How it was run: as §1
# [30] = target: Fuc(a1-2)[GalNAc(a1-3)]Gal(b1-3)GlcNAc(b1-6)GalNAc
# How it was run: as §1
# [31] = target: Fuc(a1-2)[GalNAc(a1-3)]Gal(b1-4)Glc
# How it was run: as §1
# [32] = target: Fuc(a1-2)[GalNAc(a1-3)]Gal(b1-4)GlcNAc
# How it was run: as §1
# [33] = target: Fuc(a1-2)[GalNAc(a1-3)]Gal(b1-4)GlcNAc(b1-2)Man
# How it was run: as §1
# [34] = target: Fuc(a1-2)[GalNAc(a1-3)]Gal(b1-4)GlcNAc(b1-2)Man(a1-3)[Fuc(a1-2)[GalNAc(a1-3)]Gal(b1-4)GlcNAc(b1-2)Man(a1-6)]Man(b1-4)GlcNAc(b1-4)GlcNAc
# How it was run: as §1
# [35] = target: Fuc(a1-2)[GalNAc(a1-3)]Gal(b1-4)GlcNAc(b1-2)Man(a1-3)[Fuc(a1-2)[GalNAc(a1-3)]Gal(b1-4)GlcNAc(b1-2)Man(a1-6)]Man(b1-4)GlcNAc(b1-4)[Fuc(a1-6)]GlcNAc
# How it was run: as §1
# [36] = target: Fuc(a1-2)[GalNAc(a1-3)]Gal(b1-4)GlcNAc(b1-3)Gal(b1-4)GlcNAc
# How it was run: as §1
# [37] = target: Fuc(a1-2)[GalNAc(a1-3)]Gal(b1-4)GlcNAc(b1-3)Gal(b1-4)GlcNAc(b1-3)Gal(b1-4)GlcNAc
# How it was run: as §1
# [38] = target: Fuc(a1-2)[GalNAc(a1-3)]Gal(b1-4)GlcNAc(b1-3)GalNAc
# How it was run: as §1
# [39] = target: Fuc(a1-2)[GalNAc(a1-3)]Gal(b1-4)GlcNAc(b1-3)[Fuc(a1-2)[GalNAc(a1-3)]Gal(b1-4)GlcNAc(b1-6)]GalNAc
# How it was run: as §1
# [40] = target: Fuc(a1-2)[GalNAc(a1-3)]Gal(b1-4)GlcNAc(b1-6)GalNAc
# How it was run: as §1
# [41] = target: Fuc(a1-2)[GalNAc(a1-3)]Gal(b1-4)[Fuc(a1-3)]GlcNAc
# How it was run: as §1
# [42] = target: Fuc(a1-2)[GalNAc(a1-3)]Gal(b1-4)[Fuc(a1-3)]GlcNAc(b1-3)GalNAc
# How it was run: as §1
# [43] = target: Fuc(a1-2)[GalNAc(a1-4)]Gal(b1-4)GlcNAc
# How it was run: as §1
binder,measurement,setting,value
B1,glycan array binding signal (z-score),[1],-0.487
same,glycan array binding signal (z-score),[2],2.46
same,glycan array binding signal (z-score),Fuc(a1-2)Gal6S(b1-4)Glc,-0.486
same,glycan array binding signal (z-score),[3],0.178
same,glycan array binding signal (z-score),Fuc(a1-2)[Gal(a1-3)]Gal,-0.129
same,glycan array binding signal (z-score),[4],0.739
same,glycan array binding signal (z-score),[5],-0.048
same,glycan array binding signal (z-score),[6],0.221
same,glycan array binding signal (z-score),[7],-0.329
same,glycan array binding signal (z-score),[8],1.14
same,glycan array binding signal (z-score),[9],0.027
same,glycan array binding signal (z-score),[10],-0.151
same,glycan array binding signal (z-score),[11],-0.003
same,glycan array binding signal (z-score),[12],-0.223
same,glycan array binding signal (z-score),[13],0.014
same,glycan array binding signal (z-score),[14],-0.311
same,glycan array binding signal (z-score),[15],0.237
same,glycan array binding signal (z-score),[16],-0.31
same,glycan array binding signal (z-score),[17],5.67
same,glycan array binding signal (z-score),[18],0.029
same,glycan array binding signal (z-score),[19],-0.618
same,glycan array binding signal (z-score),[20],0.201
same,glycan array binding signal (z-score),[21],-0.041
same,glycan array binding signal (z-score),[22],0.346
same,glycan array binding signal (z-score),[23],-0.409
same,glycan array binding signal (z-score),[24],-0.024
same,glycan array binding signal (z-score),[25],-0.378
same,glycan array binding signal (z-score),[26],-0.271
same,glycan array binding signal (z-score),[27],-0.472
same,glycan array binding signal (z-score),[28],1.13
same,glycan array binding signal (z-score),[29],0.362
same,glycan array binding signal (z-score),[30],-0.432
same,glycan array binding signal (z-score),[31],-0.252
same,glycan array binding signal (z-score),[32],-0.241
same,glycan array binding signal (z-score),[33],0.112
same,glycan array binding signal (z-score),[34],-0.011
same,glycan array binding signal (z-score),[35],0.487
same,glycan array binding signal (z-score),[36],-0.399
same,glycan array binding signal (z-score),[37],-0.302
same,glycan array binding signal (z-score),[38],-0.125
same,glycan array binding signal (z-score),[39],0.672
same,glycan array binding signal (z-score),[40],-0.433
same,glycan array binding signal (z-score),[41],-0.182
same,glycan array binding signal (z-score),[42],-0.138
same,glycan array binding signal (z-score),[43],-0.264
